# Test results published in PubChem BioAssay AID463173 (ICCB-Longwood Screening Facility, Harvard Medical School, 2010).
# Among all 52,000 compounds or so, about 1,700 (3.3%) were called active. Cut-off read from the data, not from the text of the source: active = survival mostly below about 52% (no sharp cut-off); inactive = mostly above about 56%. Some of the results follow.
# System: Wild type
# Experiment: growth inhibition of S. aureus wild type versus tarO mutant, primary screen, teichoic acid synthesis inhibitors, RN4220, OD600 (AID 463173)
# Details: S. aureus RN4220 wild type/DeltatarO growth, OD600, 18 h, stronger effect = lower value, screened at 18.75 µg/mL (by protocol)
row,Compound,survival
1,COc1cc(Cl)c(C)cc1Nc1c2c(nc3ccccc13)CCC2,inactive: 81%
2,Cc1nc2ccc(S(=O)(=O)N(CC(=O)Nc3ccc(Cl)cc3)Cc3ccccc3)cc2s1,inactive: 49%
3,CCc1cccc(CC)c1NC(=O)c1c(C)oc2ccc(O)c(CN3CCOCC3)c12,inactive: 88%
4,COc1ccc(CNC(=O)c2ccc3c(c2)NC(=O)C(CS(=O)(=O)Cc2ccccc2Cl)N3)cc1 (stereo not given),inactive: 49%
5,CCOc1ccccc1CNC(=O)CN1C(=O)CCn2nc(-c3cn(C)c4ccccc34)cc21,inactive: 87%
6,O=C(c1ccc2c(c1)N(Cc1cccc(Cl)c1)C(=O)c1ccccc1S2(=O)=O)N1CCC(Cc2ccccc2)CC1,inactive: 88%
7,CCOC(=O)c1cccc(NS(=O)(=O)c2c(C)nc3sc(C)cn3c2=O)c1,inactive: 81%
8,CCOC(=O)c1cnc(SC2CC(=O)N(c3ccccc3)C2=O)nc1N (stereo not given),inactive: 105%
9,CC(C)CCOc1ccc(Oc2nc(N(C)C)nc(N(C)C)n2)nn1,inactive: 84%
10,COc1ccccc1-n1ncc2c(=O)[nH]c(SCC(=O)Nc3cccc(F)c3)nc21,inactive: 74%
11,COc1ccc2c(CNCc3cccs3)c(C(=O)O)n(Cc3ccc(F)cc3Cl)c2c1,inactive: 112%
12,CCOc1ccccc1N(C)C(=O)Cn1cnc2onc(-c3ccc(F)cc3)c2c1=O,inactive: 90%
13,CSc1cccc(N2C(=O)N(CC(=O)NCc3ccccc3Cl)c3ccccc3S2(=O)=O)c1,inactive: 131%
14,COc1ccc(-c2nn[nH]n2)cc1,inactive: 115%
15,Cc1ccc(NC(=O)C(Cc2ccccc2)n2cccc2)c(C)c1 (stereo not given),inactive: 81%
16,Cc1cc(=O)n2c(C(=O)Nc3ccc(F)c(Cl)c3)c(C(=O)Nc3cccc(C)c3C)sc2n1,inactive: 94%
17,CCOc1ccc(C(=O)c2oc3ccccc3c2NC(=O)c2cc(-c3ccccc3)on2)cc1,inactive: 82%
18,CC(C)Oc1cccc(C(=O)Nc2ccc(-c3nc4cc(Cl)cc(Cl)c4o3)cc2)c1,inactive: 82%
19,Cc1cccc2sc(N(Cc3cccnc3)C(=O)Cc3ccccc3)nc12,inactive: 81%
20,Cc1nnc(SCc2ccccc2Cl)c2cc3occc3n12,inactive: 77%
21,CC(C)c1nnc(NC(=O)c2ccccc2)s1,inactive: 111%
22,CCCCCn1c(=N)c(S(=O)(=O)c2ccccc2)cc2c(=O)n3cccc(C)c3nc21,inactive: 68%
23,COc1ccc(NC(=O)CN(C)S(=O)(=O)c2ccc3c(c2)CCCN3C(C)=O)cc1Cl,inactive: 72%

row,Compound,survival
1,Cc1cc(Nc2ccc(C(C)C)cc2)nc(-n2nc(C)cc2C)n1,inactive: 57%
2,Cc1ccc(NC(=O)CSc2nc(-c3cccs3)cc(C(F)(F)F)n2)cc1C,inactive: 125%
3,COc1cc(-c2noc(-c3ccc(NC4CCCCC4)c([N+](=O)[O-])c3)n2)cc(OC)c1OC,inactive: 86%
4,O=C(NCCN1CCOCC1)c1ccc(NC(=O)C2COc3ccccc3O2)cc1 (stereo not given),inactive: 111%
5,O=C(c1ccc2c(c1)N(Cc1ccccc1F)C(=O)c1ccccc1S2=O)N1CCCCC1 (stereo not given),inactive: 89%
6,COc1ccccc1C(=O)Nc1ccccc1SCc1cc(=O)c2ccccc2[nH]1,inactive: 68%
7,CCN(CC)C(=O)Cn1c(=O)n(CCCCCC(=O)NCc2ccccc2)c(=O)c2sccc21,inactive: 74%
8,CCOc1cc(/C=C(\C#N)C(=O)Nc2ccccc2C)ccc1OCc1cc(=O)n2nc(CC)sc2n1,inactive: 136%
9,Cc1ccn(CC(C)C(=O)O)n1 (stereo not given),inactive: 107%
10,c1ccc(CNc2nnnn2-c2ccccc2)cc1,inactive: 106%
11,O=C(NC1CC(=O)N(c2ccc(F)cc2)C1)C1CCCCC1 (stereo not given),inactive: 65%
12,COc1cccc(C(c2c(O)cc(C)n(Cc3ccco3)c2=O)N2CCC(C)CC2)c1 (stereo not given),inactive: 81%
13,CN(CC(=O)O)Cc1nc2ccccc2[nH]1,inactive: 105%
14,CCOc1ccc(-c2csc(-c3nc(-c4ccc(Br)s4)cs3)n2)cc1,inactive: 63%
15,Cc1nnc(SCC(=O)NCc2ccc(N(C)C)cc2)c2nn(-c3ccccc3)c(C)c12,inactive: 84%
16,Cc1ccc(NC(=O)C2CCN(c3nnc(-n4cccc4)s3)CC2)cc1Cl,inactive: 79%
17,COc1ccc(OC)c2sc(N(Cc3cccnc3)C(=O)c3ccc(C(C)=O)cc3)nc12,inactive: 129%
18,COc1ccc(-c2nc(C)c(CCNC(=O)c3cc(OC)c(OC)c(OC)c3)s2)cc1OC,inactive: 57%
19,Cc1ccc(C)c(N2CCN(S(=O)(=O)c3ccc4c(c3)CC(=O)N4C)CC2)c1,inactive: 140%
20,Cc1ccc(C(=O)COC(=O)c2cccc(NC(=O)c3ccc(Br)cc3)c2)cc1,inactive: 74%
21,CC(C)CCNC(=O)c1cccc(-n2cnc3cccnc32)c1,inactive: 136%
22,CCCN(C(=O)Cc1c(C(=O)O)[nH]c2ccc(Cl)cc12)c1ccc(OCC)cc1,inactive: 53%
23,CCc1ccc2[nH]c(=O)c(C(c3nnnn3C3CCCC3)N(C)Cc3ccccc3)cc2c1 (stereo not given),inactive: 101%

row,Compound,survival
1,CCCCN(CC)CCCNC(=O)C1CCN(c2nc3ccc(CC)cc3s2)CC1,inactive: 79%
2,COc1cccc(CNC(=O)Cn2c(SCC(=O)Nc3ccc(F)cc3)nc3ccccc32)c1,active: 0%
3,Cc1cccc(CS(=O)(=O)Cc2ccc(C(=O)NC(C)c3ccccc3)o2)c1 (stereo not given),inactive: 74%
4,Cc1ccc2c(c1)-c1c(c(C(=O)NCCc3ccccc3)nn1C)CS2,active: 10%
5,CCOCCCNC(=O)c1[nH]c2cc(OC)ccc2c1Sc1ccccc1,inactive: 86%
6,COc1ccc(CCC(=O)NCc2nc3cccnc3n2Cc2ccc(C)cc2)cc1,inactive: 68%
7,C=CCN1C(=O)C(CCC(=O)O)NC1=S (stereo not given),inactive: 91%
8,Cc1ccc(S(=O)(=O)NCC(c2ccco2)N2CCN(c3ccccc3F)CC2)cc1 (stereo not given),inactive: 84%
9,Cc1cccc(N(CC(=O)Nc2cccc(Cl)c2C)S(C)(=O)=O)c1C,inactive: 70%
10,COC(=O)c1c(NC(=O)c2nc(SCc3ccc(C)cc3)ncc2Cl)sc2c1CCCC2,inactive: 85%
11,N#Cc1ccccc1NC(=O)Nc1ccccc1,inactive: 108%
12,CCCN1C(=O)CN(C2CCCCC2)C(=O)C1c1ccc(OC)c(OC)c1 (stereo not given),inactive: 84%
13,COc1ccc(NC(=O)Cn2c(=O)n(CCC(=O)NCCc3ccc(OC)c(OC)c3)c(=O)c3ccccc32)cc1Cl,inactive: 92%
14,Cc1nn(CC(=O)O)c(C)c1C,inactive: 121%
15,CCNc1nc(NCC)nc(N(C#N)CC)n1,inactive: 110%
16,CCCCCNS(=O)(=O)c1ccc(N2CCCCS2(=O)=O)cc1,inactive: 68%
17,O=C(NC1CC1)c1ccc(Cn2c(SCc3ccccc3F)nc3cccnc32)cc1,inactive: 113%
18,CC(C)COc1ccc(-c2nnn(CC(=O)N3C(C)CCCC3C)n2)cc1 (stereo not given),inactive: 102%
19,Cc1ccc2c(=O)cc(C(=O)Nc3ccc(S(=O)(=O)Nc4onc(C)c4C)cc3)oc2c1,inactive: 110%
20,Cc1cccc(-n2ncc(C(=O)N3CCN(C(=O)c4ccco4)CC3)c2C2CCN(C(=O)OC(C)(C)C)CC2)c1,inactive: 83%
21,Cc1ccc2c(c1)c(=O)c(C(=O)c1ccncc1)cn2CC(=O)Nc1ccc(C(C)C)cc1,inactive: 105%
22,COC(=O)C(C)Nc1n[nH]c(=S)[nH]c1=O (stereo not given),inactive: 125%
23,CC(NC(=O)C(=O)Nc1c2c(nn1-c1ccccc1)CSC2)c1ccccc1 (stereo not given),inactive: 55%

row,Compound,survival
1,Cc1ccc(N2CC(NC(=O)c3ccc(Br)o3)CC2=O)cc1C (stereo not given),inactive: 32%
2,COc1cccc(NC(=O)Cn2nc3c4ccccc4n(Cc4cccc(F)c4)cc-3c2=O)c1,inactive: 119%
3,Cc1nn(CCC(=O)NCc2ccc(N(C)C)cc2)c(=O)c2nn(-c3ccccc3)c(C)c12,inactive: 87%
4,Cc1nnc(N2CCN(c3ccccc3F)CC2)c2c1nnn2Cc1ccccc1Cl,inactive: 89%
5,CC(C)(C)c1ccc(C(=O)Nc2ccc(-c3nc4cc(Cl)ccc4o3)cc2)cc1,inactive: 81%
6,CCOc1ccc(NCc2cccn2-c2nnc(N3CCC(C(=O)NCc4ccc(C)cc4)CC3)s2)cc1,inactive: 91%
7,NC(CSC1CCCCO1)C(=O)O (stereo not given),inactive: 113%
8,COc1ccc(N2CCN(CC(O)COc3ccc(C(C)C)c(C)c3)CC2)cc1 (stereo not given),inactive: 85%
9,CCc1nnc(NC(=O)CSc2nccn2Cc2ccc(F)cc2)s1,inactive: 129%
10,COc1ccc2nc3oc(C(=O)N(C)c4ccc(Cl)cc4)cc3cc2c1,inactive: 86%
11,CC(=O)Nc1ccc(S(=O)(=O)N2CCN(c3nc4ccccc4s3)CC2)cc1,inactive: 98%
12,CCCN(C(=O)Cn1nc(Cc2cccnc2)c2ccccc2c1=O)c1ccc(C(C)C)cc1,inactive: 98%
13,CCc1ccccc1NC(=O)Cn1c(=O)oc2ccccc21,inactive: 59%
14,CCOc1ccc(CCNC(c2nnc(-c3ccccc3)o2)c2ccccc2Cl)cc1OCC (stereo not given),active: 4%
15,Cc1ccc(S(=O)(=O)Nc2nc3n(n2)C(c2ccc(Cl)cc2)C=C(c2ccccc2)N3)cc1 (stereo not given),active: -4%
16,O=C(CN1C(=O)CC(c2ccco2)Sc2ccccc21)Nc1ccc(OC(F)(F)F)cc1 (stereo not given),inactive: 85%
17,COc1ccc(CCNC(=O)c2cc(-c3ccc(C)c(C)c3)nc3ccccc23)cc1OC,inactive: 128%
18,CCCn1c2ccc(C)cc2c2nnc(SCCN3CCCCC3)nc21,inactive: 114%
19,CC1=C(C(=O)OC2CCCCCC2)C(c2c(Cl)cccc2Cl)CC(=O)N1 (stereo not given),inactive: 13%
20,COc1ccc(C(=O)NCC(c2cccs2)S(=O)(=O)c2cccs2)cc1 (stereo not given),inactive: 68%
21,Cc1ccc(NC(=O)[C@H](Cc2ccccc2)N2Cc3ccccc3C2=O)cc1F,inactive: 78%
